In PubChem BioAssay AID1347430 (National Center for Advancing Translational Sciences (NCATS), 2020):
Out of some 91,000 compounds screened, about 130 (0.14%) were called active. Inconclusive means that the source gave no clear call. Such entries were picked first, then a sample of the others. Calls come from the whole dose curve; as a rule, active = well fitted inhibition curve with a large enough effect; inconclusive = small, poorly fitted or top-dose-only effect; inactive = flat fitted curve, though single readings scatter. Potencies beside an inconclusive call are fits to weak or partial responses and may not hold up.

System: Uracil-DNA glycosylase
Assay: Primary qHTS assay for inhibitors of Activation Induced Cytidine Deaminase (AID): UDG Counterscreen signal; note: nearly all actives have a fitted effect of over 65% in size
Settings: FRET deamination/UDG coupled assay, UDG read, 4 h; activity change, negative = inhibition: at 115 µM (top of the series)
% is set by controls: 0 for no effect and ±100 for the full control effect; potency is the fitted concentration of half-maximal effect; tags give direction and shape of the fitted curve.

| SMILES | Potency | activity change, negative = inhibition |
| --- | --- | --- |
| CSc1ncc(Cl)c(C(=O)Nc2ccc(NC(C)=O)cc2)n1 | inconclusive: 89.1 µM [inhibitor, single point] |  |
| COc1ccc(SCc2cc(=O)c3cc(Cl)ccc3[nH]2)cc1 | inconclusive: 39.8 µM [inhibitor, single point] |  |
| Cc1cccc(C)c1OCCn1c(C2CC(=O)N(c3cccc(Cl)c3)C2)nc2ccccc21 (configuration not stated) | inconclusive: 89.1 µM [inhibitor, single point] |  |
| COc1ccc2c(CCNC(=O)CCNc3nc(Cl)nc4nc[nH]c34)c[nH]c2c1 |  | inactive: 0% |
| Cc1oc2ncnc(N3CCCCC3)c2c1C(=O)N1CCN(c2cccc(C(F)(F)F)c2)CC1 | inconclusive: 89.1 µM [inhibitor, partial curve] |  |
| COc1ccc(OCC(=O)OCc2cc(=O)n3cc(C)sc3n2)cc1 | inconclusive: 100 µM [inhibitor, single point] |  |
| NS(=O)(=O)c1ccc(CCNc2ncnc3c2cnn3-c2ccccc2Cl)cc1 |  | inactive: -2.13% |
| CC(C)C(C)NC(=O)CCc1ccc(C#N)cc1 (configuration not stated) |  | inactive: 1.39% |
| Brc1ccc(-c2noc(-c3cc(-c4ccco4)n[nH]3)n2)cc1 |  | inactive: -4.65% |
| Cc1ccccc1Cn1c(=O)n(Cc2ccc(Cl)cc2)c(=O)c2cccnc21 | inconclusive: 100 µM [inhibitor, single point] |  |
| CCOC(=O)c1c(NC(=O)c2nc(SC(C)C)ncc2Cl)sc2c1CCCC2 | inconclusive: 89.1 µM [inhibitor, single point] |  |
| O=C(OCC(=O)C12CC3CC(CC(C3)C1)C2)c1ccc([N+](=O)[O-])s1 | inconclusive: 44.7 µM [inhibitor, partial curve, poor fit] |  |
| O=C(NC1CCCC1)C1CC=CCC1c1nc2ccccc2s1 (configuration not stated) |  | inactive: -7.21% |
| COc1ccc(NC(=O)CSc2nc(N3CCOCC3)c3c(c2C#N)CC(C)(C)OC3)cc1 |  | inactive: 5.08% |
| CCc1[nH]c2ccc(C(=O)O)cc2c1C |  | inactive: -0.701% |
| Cc1ccc(-c2nc(CC(=O)NC3CCCC(C(F)(F)F)C3)cs2)cc1 (configuration not stated) | inconclusive: 79.4 µM [inhibitor, partial curve, poor fit] |  |
| CCOC(=O)c1cc(S(=O)(=O)N2CCN(c3cccc(OC)c3)CC2)[nH]n1 | inconclusive: 100 µM [inhibitor, single point] |  |
| CCOc1ccc(CNC(=O)Cn2cc3c(n2)-c2c(oc(C(=O)N4CCCC4)c2C)CC3)cc1 | inconclusive: 39.8 µM [inhibitor, full curve, poor fit] |  |
| CC[N+](C)(CC)CCCOC(=O)C1(c2ccccc2)CCCC1 |  | inactive: -4.68% |
| O=C(CCCn1c(=O)[nH]c2ccsc2c1=O)N1CCN(c2cccc(C(F)(F)F)c2)CC1 |  | inactive: -3.68% |
| Cc1cc(Cl)ccc1NC(=O)CN1C(=O)COc2ccc(S(=O)(=O)N3CCC(C)CC3)cc21 |  | inactive: -4.06% [at 57.5 µM] |
| CC1CCCCN1C(=O)CSc1nc(-c2cccs2)nc2ccccc12 (configuration not stated) |  | inactive: -6.97% |
| Oc1ccc(C2N3CC4(c5ccccc5)CN2CC(c2ccccc2)(C3)C4O)cc1 (configuration not stated) |  | inactive: -1.52% |
| CC(=O)Nc1cccc(NC(=O)Cc2csc(COc3cccc(C)c3)n2)c1 |  | inactive: 1.66% |

| SMILES | Potency | activity change, negative = inhibition |
| --- | --- | --- |
| COc1ccc(C(=O)Nc2nc3nc(C)c(Cl)c(=O)n3[nH]2)cc1 |  | inactive: -5.06% |
| CN1CCc2nc3sc(C(=O)Nc4c(F)cccc4F)c(N)c3cc2C1 |  | inactive: 0.528% |
| O=[N+]([O-])c1c(Nc2cccc(Cl)c2Cl)cc(Cl)c2nonc12 |  | inactive: -3.49% |
| CCOc1ccc(NC(=O)c2ccc3c(c2)c(C)c(C)n3Cc2ccc(F)cc2)cc1 | inconclusive: 89.1 µM [inhibitor, single point] |  |
| Cc1ccc(C)c2sc(N3CCN(C(=O)c4ccco4)CC3)nc12 | inconclusive: 89.1 µM [inhibitor, partial curve, poor fit] |  |
| Cc1nc(-c2ccc(S(=O)(=O)Nc3ccc(OC(F)(F)F)cc3)cc2)co1 |  | inactive: -1.04% |
| C/C(=N\O)c1ccc(OCC(O)CNC(C)C)cc1 (configuration not stated) |  | inactive: 1.8% |
| Fc1ccc(C(c2nnc(-c3ccccc3)o2)N2CCN(c3ccccc3)CC2)c(Cl)c1 (configuration not stated) | inconclusive: 89.1 µM [inhibitor, single point] |  |
| CCCC(=O)Nc1cccc(-c2nc3ncccc3o2)c1 | inconclusive: 100 µM [inhibitor, single point] |  |
| CCc1ccc(NC(=O)CSc2nc3c(oc4ccccc43)c(=O)n2-c2cccc(C)c2)cc1 | inconclusive: 79.4 µM [inhibitor, single point] |  |
| Cc1ccc(C(=O)c2c(N)c(C(=O)Nc3ccccc3Cl)c3ccccn23)cc1 | inconclusive: 100 µM [inhibitor, single point] |  |
| CCOc1cc(/C=C(/C#N)C(=O)OCCOC)cc(Cl)c1OC |  | inactive: 6.32% |
| COc1ccc(S(=O)(=O)Nc2ccc(-c3ccc(N4CCCC4)nn3)cc2)cc1F | inconclusive: 100 µM [inhibitor, single point] |  |
| Cc1cc(NC(=O)Nc2nnc(N(C)C3CCCCC3)s2)ccc1Br | inconclusive: 89.1 µM [inhibitor, partial curve, poor fit] |  |
| Cn1c(C=C(C#N)C#N)ccc1-c1cc(Cl)ccc1Cl |  | inactive: -10.8% |
| CCC(CO)Nc1ncc2cc3ccccc3nc2c1C#N (configuration not stated) | inconclusive: 89.1 µM [inhibitor, partial curve, poor fit] |  |
| O=C(Nc1cccc2cccnc12)C(c1ccccc1)c1ccccc1 | active: 89.1 µM |  |
| Cc1oc(-c2cccc(Cl)c2)nc1CN1CCCC(C(=O)NCCc2ccc(Cl)cc2)C1 (configuration not stated) | inconclusive: 100 µM [inhibitor, single point] |  |
| O=C(COC(=O)c1ccc2ccccc2n1)NCCc1ccccc1 |  | inactive: -2.41% |
| Cc1ccc(CNC(=O)CN(c2ccc(Cl)cc2Cl)S(=O)(=O)c2ccccc2)cc1 | inconclusive: 100 µM [inhibitor, single point] |  |
| Cc1ccc2oc(C(=O)N(Cc3cccc(F)c3)C3CCS(=O)(=O)C3)c(C)c2c1 (configuration not stated) | inconclusive: 70.8 µM [inhibitor, single point] |  |
| COc1cc(/C=C2\N=C(SC)SC2=O)cc(OC)c1OC |  | inactive: 5.46% |
| Cc1nn(C)c2c1c(-c1ccccc1)cc(=O)n2Cc1ccc(Cl)cc1 | inconclusive: 89.1 µM [inhibitor, single point] |  |
